Measurements taken from PMC4336329 (PLoS ONE, 2015).
Out of some 310,000 compounds screened, about 14,000 (4.5%) showed an effect of 50% or more. Effects have a minus sign here. Some of the results follow.

These molecules were tested against human ether-à-go-go-related gene (hERG) potassium channel (human, UniProt Q12809) (assay: primary screen, population patch clamp on CHO cells stably expressing hERG).
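Further: peak tail current of the secondary pulse compared with the same well before compound.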

Sequence of human ether-à-go-go-related gene (hERG) potassium channel (Q12809 whole entry, looked up): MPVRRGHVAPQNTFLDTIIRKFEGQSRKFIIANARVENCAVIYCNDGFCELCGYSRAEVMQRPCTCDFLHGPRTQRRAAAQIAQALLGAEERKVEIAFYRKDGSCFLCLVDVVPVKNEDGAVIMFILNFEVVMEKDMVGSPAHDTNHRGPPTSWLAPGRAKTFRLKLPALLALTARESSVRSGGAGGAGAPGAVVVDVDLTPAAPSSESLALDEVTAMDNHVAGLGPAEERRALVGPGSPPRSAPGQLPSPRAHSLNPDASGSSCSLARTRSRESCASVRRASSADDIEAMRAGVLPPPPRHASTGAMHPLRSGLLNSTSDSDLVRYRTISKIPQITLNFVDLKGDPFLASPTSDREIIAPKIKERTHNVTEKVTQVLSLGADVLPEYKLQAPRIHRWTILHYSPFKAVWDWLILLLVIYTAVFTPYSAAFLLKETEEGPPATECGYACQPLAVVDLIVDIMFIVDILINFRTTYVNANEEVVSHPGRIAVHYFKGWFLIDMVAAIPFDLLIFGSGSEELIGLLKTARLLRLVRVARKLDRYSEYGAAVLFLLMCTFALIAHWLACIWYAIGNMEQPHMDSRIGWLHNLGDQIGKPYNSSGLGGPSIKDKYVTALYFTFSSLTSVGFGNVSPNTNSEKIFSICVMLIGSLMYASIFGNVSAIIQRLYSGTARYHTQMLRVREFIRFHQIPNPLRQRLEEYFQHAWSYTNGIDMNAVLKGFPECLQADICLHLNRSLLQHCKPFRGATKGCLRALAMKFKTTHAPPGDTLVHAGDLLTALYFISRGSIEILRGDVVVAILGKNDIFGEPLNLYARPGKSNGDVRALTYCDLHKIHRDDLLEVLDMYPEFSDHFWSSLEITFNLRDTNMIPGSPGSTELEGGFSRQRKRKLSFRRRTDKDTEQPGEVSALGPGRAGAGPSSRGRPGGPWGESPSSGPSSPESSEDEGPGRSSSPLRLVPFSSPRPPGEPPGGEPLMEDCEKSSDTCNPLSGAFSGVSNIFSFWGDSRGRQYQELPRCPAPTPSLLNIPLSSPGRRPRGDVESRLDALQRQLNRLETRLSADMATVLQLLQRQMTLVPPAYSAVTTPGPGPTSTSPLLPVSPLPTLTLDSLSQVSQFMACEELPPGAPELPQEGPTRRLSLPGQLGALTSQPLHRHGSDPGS

| SMILES | hERG current change (%, negative = inhibition) at 10uM |
| --- | --- |
| CCOc1cccc(-c2c(C(=O)N/N=C(\C)c3cccnc3)nnn2-c2nonc2N)c1 | 8.96% |
| Cc1cc(C)cc(Oc2coc3c(CN(C)C)c(O)ccc3c2=O)c1 | 0.854% |
| COc1ccc(S(=O)(=O)N[C@H](C(=O)O)C(C)C)cc1 | 2.44% |
| O=[N+]([O-])c1ccc2c(c1)ncn2CCc1ccccc1 | -8.59% |
| CCN(CC)CC(O)COc1ccc2c(c1)c(C(C)=O)c(C)n2-c1ccccc1 (stereo not drawn) | -12.4% |
| CCOc1ccccc1/C=N/NC(=O)c1nnn(-c2nonc2N)c1CN1CCCCCC1 | 12.5% |
| CC(/C=N/NC(=O)c1nn(C)c(C)c1Br)=C\c1ccccc1 | -53.8% |
| Cc1ccc(N2C(=O)C3C4CC(=O)C(c5ccccc54)C3C2=O)cc1 (stereo not drawn) | 2.69% |
| O=C(O)Cc1ccc(N=Cc2c(O)ccc3ccccc23)cc1 | -12.8% |
| O=C(c1ccc(Cl)c(S(=O)(=O)N2CCOCC2)c1)N(Cc1nnc(-c2ccccc2Cl)o1)C1CC1 | -58.9% |
| Cc1nnc(NC(=O)CSc2n[nH]c(-c3ccccc3)n2)s1 | 7.22% |
| COc1ccc(N(CC(=O)N2CCc3ccccc32)S(=O)(=O)c2c(C)noc2C)cc1 | 10.9% |
| COC(=O)/C=C/c1cnc2ccccc2c1 | 55.2% |
| CCn1c(SCC(=O)c2ccc(CNC(C)=O)o2)nnc1-c1cccs1 | 3.72% |
| Cc1ccc2c(COC(=O)c3n[nH]c4ccccc34)cc(=O)oc2c1 | 2.46% |
| Cc1cc(C=O)c(C)n1-c1cccc(C(=O)O)c1 | 9.02% |
| O=C(CCN1CCN(CCO)CC1)Nc1ccc(Br)cc1 | 1.76% |
| Cl.c1coc(CNCC2OCCc3ccccc32)c1 (stereo not drawn) | -11% |
| CCC(C)OC(=O)C1C(c2ccccc2)C(C(=O)O)C1c1ccccc1 (stereo not drawn) | -0.0678% |

| SMILES | hERG current change (%, negative = inhibition) at 10uM |
| --- | --- |
| Cc1ccc(C)c(CN2C(=O)C3CCCN3c3ccc(C#N)cc32)c1 (stereo not drawn) | -2.38% |
| COc1ccc(C2=NOC(COC(=O)c3ccc4ccccc4n3)C2)cc1 (stereo not drawn) | 6.54% |
| C=C1C(C(=O)Nc2ccc(OCC)cc2)C1C(=O)Nc1ccc(OCC)cc1 (stereo not drawn) | 17.3% |
| NC(=O)C1CCN(C(=O)C(=O)c2cn(CC(=O)N3CCCCCC3)c3ccccc23)CC1 | 20.1% |
| Cc1sc(NC(=O)Nc2ccccc2)c(C(N)=O)c1C | 13.6% |
| c1ccc2c(c1)Oc1ccccc1S2 | 14.7% |
| O=C(CCS(=O)(=O)c1ccccc1Cl)Nc1ccc(S(=O)(=O)Nc2ncccn2)cc1 | 9.5% |
| CCOc1cc(N2CCOCC2)c(OCC)cc1NC(=O)C1CCCC1 | 10.5% |
| COCCn1c(C)cc(C(=O)COC(=O)c2ccc(NC(=O)CC#N)cc2)c1C | 16.6% |
| COc1ccccc1Nc1nc(N)nc(CN2CCOCC2)n1 | 10.1% |
| C/C(=N\N=c1/scc(C)n1Cc1ccco1)c1cccc([N+](=O)[O-])c1 | 4.46% |
| O=C(CCCCCN1C(=O)c2ccccc2C1=O)Nc1ccc(S(=O)(=O)N2CCCCC2)cc1 | -46.6% |
| Cc1ccc(C(=O)N2CCCC(Nc3ccc(F)c(F)c3)C2)cn1 (stereo not drawn) | -32.1% |
| O=C(COc1ccccc1Cl)NCc1ccccc1 | -2.58% |
| COc1ccc(/C=N/NC(=O)CNC(=O)/C=C/c2ccccc2OC)cc1 | -25.4% |
| Cc1oc2c(cc(NS(=O)(=O)c3ccc(F)cc3)c3ccccc32)c1C(=O)O | 8.07% |
| COc1ccc(Nc2oc(-c3ccc(OC)cc3)nc2C#N)cc1 | 15.5% |
| COCc1ccc(C(=O)N2CCCC(N(C)CCc3ccc(OC)c(OC)c3)C2)s1 (stereo not drawn) | -62.4% |
| O=C1C=C(c2ccc(F)cc2OCc2ccccc2)C[C@@H](c2ccc(Cl)cc2)C1 | 6.91% |

| SMILES | hERG current change (%, negative = inhibition) at 10uM |
| --- | --- |
| C=CCN1C(=O)/C(=C\c2cccc(OC(=O)c3ccco3)c2)SC1=S | 2.37% |
| O=C(NC1CCCC1)C1CCCN1C(=O)Oc1ccccc1 (stereo not drawn) | 31.4% |
| CCc1ccc(-c2cc(C)no2)cc1S(=O)(=O)N1CCN(C(=O)c2ccco2)CC1 | -59.6% |
| CCOC(=O)CSc1nnc(C)c(C)n1 | -8.34% |
| COc1cccc(C(=O)Nc2nnc(SCC(=O)NC3CCCC3)s2)c1 | 9.37% |
| CC(C)N(Cc1ccccc1)S(=O)(=O)c1cccs1 | -5.85% |
| CC1=C(C(=O)OCc2ccccc2)C(c2cccc([N+](=O)[O-])c2)NC(=O)N1C (stereo not drawn) | -17.9% |
| COc1ccc(OCC(=O)Nc2ccc(C)cc2)cc1 | 8.19% |
| O=C(NCCCN1CCCC1=O)c1csc2ccccc12 | -28.2% |
| CCOc1ccc(C2C(C(=O)C3CC3)N3C=C(C#N)C=CC3C2(C#N)C#N)cc1 (stereo not drawn) | -5.27% |
| COCCN(Cc1cc2cccc(C)c2[nH]c1=O)C(=O)c1ccccc1 | 3.44% |
| Cc1cc(C(F)(F)F)n2ncc(C(=O)O)c2n1 | -0.0314% |
| COc1ccc(S(=O)(=O)Nc2nnc(Cc3ccc(OC)c(OC)c3)s2)cc1 | 18.7% |
| CCCn1ncc(CN2CCN(CCc3ccccc3)C(CCO)C2)c1C (stereo not drawn) | -46.9% |
| COC(=O)CSc1nnc(-c2sc3ccccc3c2Cl)o1 | 11.1% |
| O=C(COc1ccccc1)N1CCN(C2CC3CCC2C3)CC1 (stereo not drawn) | 7.39% |
| C=C(C)CSc1nc2sc3c(c2c(=O)n1-c1ccccc1)CCN(C)C3 | 16.6% |
| COc1ccc(CNC(=O)c2ccc(CS(=O)(=O)c3ccc(Br)cc3)o2)cc1 | -8.03% |
| Cc1ccccc1C(=O)NNC(=O)Nc1ccccc1 | 11.6% |
